Laboratory results taken from PubChem BioAssay (NCATS).
Where “and” joins values, the source holds several entries; their conditions need not be identical. Equal values may be shown once. The shares of active, inactive and inconclusive entries below differ from those in the screen. For some of these results: Where the call is inconclusive, the potency comes from a doubtful curve fit. Calls of active or inactive are those of the source. Calls follow the shape of the dose curve; as a rule, active = well fitted curve in the direction sought with a large enough effect; inconclusive = small, poorly fitted or top-dose-only effect, or another doubt; inactive = no such curve, though single readings can be large; an effect the other way counts as inactive or inconclusive.

How the values were obtained:
CRL-7250 = normal cell line; experiment: Cytotoxic Profiling of Annotated Libraries Using Quantitative High-Throughput Screening (AID 1296008); details: Five cell lines viability, CellTiter-Glo ATP luminescence, 48-72 h; max response: stronger effect = lower value; also: nearly all actives have a fitted effect of over 60% in size
Method in brief: (§1)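 Compounds were pin-transferred onto cells and incubated 48 or 72 hr at 37 degree Celsius, 95% humidity. CellTiter-Glo was added, plates sat 10 min at room temperature, then ATP-coupled luminescence was imaged as the viability read-out.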

HaCat = experiment: as above; details: Five cell lines viability, CellTiter-Glo ATP luminescence, 48-72 h; max response: stronger effect = lower value
Method in brief: as §1

WaGa = experiment: qHTS assay to identify novel small-molecules to repurpose for Merkel cell carcinoma treatment (AID 1296009); details: MCC and control cell lines, CellTiter-Glo viability, 72 h; series mostly up to 46 µM; also: nearly all actives have a fitted effect of over 60% in size
Method in brief: (§2)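 qHTS format: cells treated with library compounds in DMSO across 8 (NPC) or 11 (MIPE) concentrations. Readout after 72 hr at 37 degree celsius was CellTiter-Glo luminescence.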

[1] = Drug repurposing screens with cells derived from glioblastoma tumor samples (AID 1345199); details: GBM patient neurospheres viability, ATP luminescence, 48 h; Potency: tumour line A unless noted; activity, negative = cell killing: at 46 µM (top of the series), tumour line A unless noted; also: nearly all actives have a fitted effect of over 40% in size; as to activity, negative = cell killing: % is scaled to controls: 0 for no effect and ±100 for the full control effect
Method in brief: (§3)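 Four patient lines of CD133+ GBM neurospheres were screened at several concentrations; hits were retested in those lines plus three slower-growing GBM lines, using 48-hour treatment and ATP-based viability.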

astro = experiment: as above; details: viability, ATP luminescence, 48 h; activity, negative = cell killing: at 45.9 µM (top of the series)
Method in brief: as §3

KB-3-1 = experiment: Cytotoxic Profiling of Annotated Libraries Using Quantitative High-Throughput Screening (AID 1296008); details: Five cell lines viability, CellTiter-Glo ATP luminescence, 48-72 h; max response: stronger effect = lower value; also: nearly all actives have a fitted effect of over 60% in size
Method in brief: as §1

MKL-1 = experiment: qHTS assay to identify novel small-molecules to repurpose for Merkel cell carcinoma treatment (AID 1296009); details: MCC and control cell lines, CellTiter-Glo viability, 72 h; series mostly up to 46 µM; also: nearly all actives have a fitted effect of over 60% in size
Method in brief: as §2

MKL-2 = experiment: as above; details: MCC and control cell lines, CellTiter-Glo viability, 72 h; series mostly up to 46 µM
Method in brief: as §2

MCC-13 = experiment: as above; details: MCC and control cell lines, CellTiter-Glo viability, 72 h; series mostly up to 46 µM
Method in brief: as §2

MCC-26 = experiment: as above; details: MCC and control cell lines, CellTiter-Glo viability, 72 h; series mostly up to 46 µM
Method in brief: as §2

[2] = qHTS assay to identify inhibitors of the type 1 interferon - major histocompatibility complex class I in skeletal muscle: Counter screen cell viability and HiBit confirmation (AID 1347412); details: iHSKM muscle cells + IFN-b, HiBiT or CellTiter-Glo, 24 h; also: nearly all actives have a fitted effect of over 60% in size; as to activity change, negative = inhibition: % is scaled to controls: 0 for no effect and ±100 for the full control effect
Method in brief: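 Luminescence read-out: Nano-Glo HiBiT lytic signal from C-terminally HiBiT-tagged HLA-B in CRISPR-edited human myoblasts, plus CellTiter Glo ATP as viability counter screen. IFN-beta 4.0 ng/ml; 24 hrs treatment at 37 C, 5% CO2.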

C33A = experiment: Primary qHTS to identify gynecologic anti-cancer compounds using libraries of approved drugs and bioactive compounds (AID 1345084); details: Gynecologic cancer cell panel viability, ATPlite luminescence, 48 h; series mostly up to 57.5 µM; also: nearly all actives have a fitted effect of over 55% in size
Method in brief: (§4)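 Cells, 1,000 per well, plated 16 h, then exposed 48 h at 37 C to compounds. Viability by ATPlite luminescence after 15 min at room temperature.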

CAOV3 = experiment: as above; details: Gynecologic cancer cell panel viability, ATPlite luminescence, 48 h; series mostly up to 57.5 µM
Method in brief: as §4

CASKI = experiment: as above; details: Gynecologic cancer cell panel viability, ATPlite luminescence, 48 h; activity change, negative = cytotoxicity: at 57.5 µM (top of the series)
Method in brief: as §4

HeLa = experiment: as above; details: Gynecologic cancer cell panel viability, ATPlite luminescence, 48 h; series mostly up to 57.5 µM
Method in brief: as §4

NIH3T3 = experiment: Cytotoxic Profiling of Annotated Libraries Using Quantitative High-Throughput Screening (AID 1296008); details: Five cell lines viability, CellTiter-Glo ATP luminescence, 48-72 h; max response: stronger effect = lower value; also: nearly all actives have a fitted effect of over 60% in size
Method in brief: as §1

UISO = experiment: qHTS assay to identify novel small-molecules to repurpose for Merkel cell carcinoma treatment (AID 1296009); details: MCC and control cell lines, CellTiter-Glo viability, 72 h; series mostly up to 46 µM; also: nearly all actives have a fitted effect of over 60% in size
Method in brief: as §2

Es-2 = experiment: Primary qHTS to identify gynecologic anti-cancer compounds using libraries of approved drugs and bioactive compounds (AID 1345084); details: Gynecologic cancer cell panel viability, ATPlite luminescence, 48 h; series mostly up to 57.5 µM; also: nearly all actives have a fitted effect of over 55% in size
Method in brief: as §4
Potency is read from the fitted curve at half-maximal effect; tags tell the direction and shape of the fitted curve.

Cc1nnc(SCC2=C(C(=O)O)N3C(=O)[C@@H](NC(=O)Cn4cnnn4)[C@H]3SC2)s1
Potency (CRL-7250): inconclusive: 33.5 µM [inhibitor, single point] | outcome (HaCat): inactive | Potency (WaGa): inconclusive: 21.1 µM [inhibitor, partial curve] | Potency [1]: inconclusive: 14.1 µM [inhibitor, partial curve] | Potency (astro): inactive

CC1(C)C(N(O)C(=O)Nc2ccc(Cl)cc2)N(c2ccc(Cl)cc2)C(=O)N1CC(=O)NN=CC=Cc1ccc([N+](=O)[O-])o1 (configuration not stated)
Potency (CRL-7250): inconclusive: 26.4 µM [inhibitor, partial curve, poor fit] | Potency (KB-3-1): inconclusive: 37.2 µM [inhibitor, single point] | Potency (MKL-1): inconclusive: 23.5 µM [inhibitor, single point] | Potency (MKL-2): active: 23.5 µM

COc1ccc(-c2cc3c(C)nc(N)nc3n(C3CCC(OCCO)CC3)c2=O)cn1 (configuration not stated)
Potency (CRL-7250): active: 23.5 nM and active: 231 nM | Potency (KB-3-1): active: 105 nM and active: 517 nM | Potency (MCC-13): active: 1.87 µM | Potency (MCC-26): active: 1.32 µM | Potency (MKL-1): active: 4.18 µM | Potency (WaGa): active: 2.09 µM | Potency ([2]; HiBiT): inconclusive: 0.313 µM [inhibitor, full curve] | Potency ([2]; Viability): inconclusive: 0.14 µM [cytotoxic, full curve] | Potency (C33A): inconclusive: 1 µM [cytotoxic, full curve, poor fit] | Potency (CAOV3): active: 1 µM | Potency (CASKI): active: 1.41 µM | Potency (HeLa): active: 7.94 µM

CC[C@H](C)n1cc(C)c2c(C(=O)NCc3c(C)cc(C)[nH]c3=O)cc(-c3ccc(N4CCNCC4)nc3)cc21
Potency (CRL-7250): inconclusive: 37.2 µM [inhibitor, single point] | Potency (KB-3-1): inconclusive: 29.6 µM [inhibitor, single point] | outcome (NIH3T3): inactive

C[C@H]1[C@H](O)O[C@@H]2O[C@@]3(C)CC[C@@H]4[C@H](C)CC[C@@H]1[C@@]24OO3
Potency (CRL-7250): inconclusive: 8.33 µM [inhibitor, full curve] | Potency (NIH3T3): inconclusive: 23.5 µM [inhibitor, partial curve] | Potency (MCC-13): inconclusive: 11.8 µM [inhibitor, partial curve, poor fit] | Potency (MKL-2): active: 10.5 µM | Potency (UISO): active: 2.96 µM

COc1cccc2c(NCc3ccccc3)nc(-n3c(N)nc4ccccc43)nc12
Potency (CRL-7250): active: 8.33 µM and inconclusive: 29.1 µM [inhibitor, single point] | Potency (KB-3-1): inconclusive: 20.6 µM [inhibitor, single point] | Potency (NIH3T3): inconclusive: 18.4 µM [inhibitor, single point] | Potency (MCC-13): inconclusive: 33.2 µM [inhibitor, single point] | Potency (MCC-26): inconclusive: 33.2 µM [inhibitor, single point] | Potency (MKL-2): active: 4.69 µM | Potency (UISO): active: 6.62 µM | Potency ([2]; Viability): active: 17.6 µM | Potency (C33A): active: 28.2 µM | Potency (CAOV3): inconclusive: 39.8 µM [cytotoxic, single point] | Potency (CASKI): active: 25.1 µM | Potency (Es-2): inconclusive: 39.8 µM [cytotoxic, single point] | Potency (HeLa): active: 25.1 µM

CCCCC(CC)CN=C(N)NC(N)=NCCCCCCN=C(N)NC(N)=NCC(CC)CCCC (configuration not stated)
Potency (CRL-7250): active: 7.5 µM | Potency (KB-3-1): inconclusive: 18.4 µM [inhibitor, single point] | Potency (NIH3T3): inconclusive: 33.5 µM [inhibitor, single point] | Potency (MCC-13): active: 10.6 µM | Potency (MCC-26): inconclusive: 29.9 µM [inhibitor, single point] | Potency ([2]; HiBiT): inconclusive: 22.2 µM [inhibitor, single point] | Potency ([2]; Viability): active: 22.2 µM | Potency (C33A): inconclusive: 28.2 µM [cytotoxic, partial curve, poor fit] | Potency (CAOV3): inconclusive: 12.6 µM [cytotoxic, partial curve, poor fit] | Potency (CASKI): inconclusive: 15.8 µM [cytotoxic, partial curve, poor fit] | Potency (Es-2): inconclusive: 39.8 µM [cytotoxic, single point] | Potency (HeLa): active: 17.8 µM

Nc1nc(Nc2ccc(S(N)(=O)=O)cc2)nn1C(=O)c1c(F)cccc1F
Potency (CRL-7250): inconclusive: 20.6 µM [inhibitor, single point] | Potency (HaCat): inconclusive: 37.2 µM [inhibitor, single point] and inconclusive: 29.1 µM [inhibitor, single point] | Potency (MCC-13): inconclusive: 23.5 µM [inhibitor, single point] | Potency (MCC-26): inconclusive: 8.33 µM [inhibitor, full curve] | Potency (MKL-1): inconclusive: 8.33 µM [inhibitor, full curve] | Potency (MKL-2): inconclusive: 23.5 µM [inhibitor, single point] | Potency (WaGa): inconclusive: 5.9 µM [inhibitor, full curve] | activity change, negative = inhibition ([2]; Viability, at 45.9 µM (top of the series)): inactive: 19% | Potency (C33A): inconclusive: 39.8 µM [cytotoxic, single point] | Potency (CAOV3): inconclusive: 22.4 µM [cytotoxic, single point] | Potency (CASKI): inconclusive: 39.8 µM [cytotoxic, single point] | Potency (Es-2): inconclusive: 28.2 µM [cytotoxic, single point] | Potency (HeLa): active: 22.4 µM
